# Assay results taken from ChEMBL document CHEMBL4888484, “Replenishing the malaria drug discovery pipeline: Screening and hit evaluation of the MMV Hit Generation Library 1 (HGL1) against asexual blood stage Plasmodium falciparum ,using a nano luciferase reporter read-out” (2022).
# Out of some 150,000 compounds screened, about 540 (0.36%) showed an effect of 50% or more. The list shows a part of the results.
# System: Plasmodium falciparum
# Assay: Primary screen in NF54 nanoGlo assay, in single point, at 2uM, 72h; a lower Z score goes with more inhibition
# Assay type: functional, Erythrocyte
# Details: timepoint 72 hour
SMILES,% Inhibition [%],Z score
CC(C)(C(=O)N1CC[C@H](CCO)C1)N1CCCCC1,10,-1.32
COc1ccc(C)cc1S(=O)(=O)C1CS(=O)(=O)CC1N1CCN(c2ccccc2)CC1 (stereo not drawn),-5,0.69
Cc1cnc(NC(=O)[C@H]2CCC(=O)NC2)s1,-13,2.07
CC(C)(C)OC(=O)N1CC(C(=O)Nc2cccc(C(F)(F)F)c2)C1,-13,1.46
O=S(=O)(c1cc(Cl)ccc1Cl)N1c2ccccc2Oc2nc3ccccc3nc21,-15,1.78
Cc1ccc(S(=O)(=O)NCc2nc(C)c(C)s2)cc1N(C)C,14,-2.44
CC(C)=CCC[C@H](C)CN1CCC(CCC(=O)NC2CC2)CC1,-14,2.41
COc1cc(NC(=O)C2CCN(S(C)(=O)=O)CC2)ncn1,-2,0.34
O=C(Cc1ccc[nH]1)Nc1ccc(O)c(Cl)c1,-5,0.72
CCn1c(C(=O)NCCN2CCCC2)c(N2CCCC2=O)c2cc(F)ccc21,3,-0.41
COC(=O)c1ccc(CN(C)CC(=O)NCCC2CCCCC2)nc1,-16,1.56
Cc1cnc(CNC(=O)Nc2cccc3c2CCCC3)cn1,6,-1.06
Cc1cccc(CS(=O)(=O)N2CCC(C(=O)Nc3cccnc3)CC2)c1,-13,2.48
Cc1oncc1CN1CCN(c2ccccn2)CC1,-2,0.37
O=C(Nc1nc2ccccn2n1)N[C@H]1CCN(c2ccc(Cl)cc2Cl)C1,-13,1.17
CC1CN(C(=O)Cc2cccc3ccccc23)CC(C)O1 (stereo not drawn),-8,1.61
COCc1nccc(NC(=O)N[C@H]2CCCc3ccccc3C2)n1,-3,0.5
CC(C)n1nccc1-c1ccc(-n2ccnc2)nn1,-18,2.6
CCOC(=O)c1nnsc1N1CCN(c2ccc(OC)cc2)CC1,5,-0.65
Cc1cc(=O)c(C(=O)N(CC(C)C)[C@H]2CCCc3cccnc32)c[nH]1,-4,0.64
CN(C)CCNC(=O)c1ccc(-c2ccnc(N3CCCC3)n2)cc1,-6,0.73
Cc1cc(CN(C)[C@H]2CCC(=O)N(CC3CCCCC3)CC2)on1,-7,1.17
O=C(c1cnccn1)N1C[C@@H]2OCC(=O)N(Cc3ccc(F)cc3)[C@@H]2C1,-2,0.31
Cc1nnccc1C(=O)N1CC2(CCCC2)C1,-31,3.58
